Data taken from PubChem BioAssay AID2451 (National Center for Advancing Translational Sciences (NCATS), 2010).
Screen size: about 290,000 compounds; about 2,100 (0.72%) were called active. The inconclusive results got no clear call from the source; some entries with a clear call stand among them for comparison. Calls come from the whole dose curve; as a rule, active = well fitted inhibition curve with a large enough effect; inconclusive = small, poorly fitted or top-dose-only effect, or effect the other way; inactive = flat fitted curve, though single readings scatter. Potencies beside an inconclusive call are fits to weak or partial responses and may not hold up.

The compounds below were run against Fructose-bisphosphate aldolase (Giardia intestinalis (strain ATCC 50803 / WB clone C6)) (UniProt A8B2U2) (assay: qHTS Assay for Inhibitors of Fructose-1,6-bisphosphate Aldolase from Giardia Lamblia). Settings: purified Giardia FBPA; activity, negative = inhibition: at 59.6 µM (top of the series) unless noted.
UniProt A8B2U2, sequence (A8B2U2 whole entry, looked up): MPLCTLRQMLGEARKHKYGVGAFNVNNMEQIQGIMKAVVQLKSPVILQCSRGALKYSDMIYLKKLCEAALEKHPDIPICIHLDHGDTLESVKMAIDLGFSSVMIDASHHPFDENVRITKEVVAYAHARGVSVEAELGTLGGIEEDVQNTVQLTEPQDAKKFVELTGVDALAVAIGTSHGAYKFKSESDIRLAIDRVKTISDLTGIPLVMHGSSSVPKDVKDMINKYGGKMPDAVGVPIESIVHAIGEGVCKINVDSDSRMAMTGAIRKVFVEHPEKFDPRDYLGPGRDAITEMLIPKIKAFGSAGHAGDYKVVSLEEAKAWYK
From the text: Assay Provider: Osnat Herzberg, University of Maryland
The objective of this project is to obtain compounds that inhibit Giardia lamblia growth. G. lamblia is a human pathogen which afflicts impoverished nations; it is the most common cause of outbreaks of diarrhea in the United States. During the course of our study of potential drug targets in Giardia, we have identified the Class II (Zn2+ functions in electrophilic catalysis) fructose-1,6-bisphosphate aldolase (FBPA) as an excellent candidate for drug targeting. FBPA is a key glycolytic pathway enzyme, essential for G. lamblia survival. The human FBPA belongs to the Class I aldolases, which have a different substrate binding site structure and a radically different catalytic mechanism (employing a lysine-Schiff base intermediate). Therefore, affinity-based or mechanism-based inhibitors of the Giardia FBPA are expected not to interfere with the catalytic function of the human FBPA.
A glyceraldehyde-3-phosphate dehydrogenase/triose phosphate isomerase/NAD/arsenate coupled assay was adapted to the 1536-well HTP format for use in the primary screen. This was done by coupling it to a diaphorase/resazurin/resorufin reaction that can be monitored by fluorescence (excitation, 544 nm; emission, 590 nm). Compounds identified in this screen will be further evaluated by coupling the glycerol-3-phosphate/triose phosphate isomerase/NADH assay to a phenazine methosulfate/tetranitroblue tetrazolium color reaction. False positives due to the dehydrogenases and diaphorase inhibition will be eliminated, and selectivity assay will triage inhibitors of mammalian triose phosphate isomerase and the Class I FBPA. G. lamblia FBPA inhibitors identified by the in vitro analyses will be examined for growth inhibition of Giardia trophozoites, and for cytotoxicity in human cells.
Step,Parameter,Value,Description
1,Enzyme reagent,2 uL,40 nM FBPA
2,Compound,23 nL,3.68 nM-57.5 uM final concentration
3,Time,10 min,RT Incubation
4,Substrate/detection Reagent,2 uL,Substrate + enzyme coupling system + AmpLite Red kit
5,Time,20 min,RT Incubation
6,Detector,525 nm/598 nm (Fluorescence),ViewLux Fluorescence Read (Read 1)
1,Medium-binding black solid-bottom Kalypsys plates. FRD or Kalypsys dispenser, 2 uL of FBPA enzyme. Bottle kept at 4C.
2,Compound Library (10 mM ,1:5 dilution). Pin-transferred for a [final] range of 3.68 nM-57.5 uM.
4,FRD or Kalypsys dispenser, 2 uL of reaction mixture. Bottle kept at 4C and covered in foil to protect from light.
6,ViewLux Protocol 1194; Excitation filter wheel A (525/20 Pol; BODIPY TMR FP), Emission filter wheel B (598/25 S; BODIPY TMR FP S).
Keywords: Fructose-bisphosphate aldolase, FBPA , Giardia lamblia , Giardia, HTS, Inhibitors
% is set by controls: 0 for no effect and ±100 for the full control effect; potency is the fitted concentration of half-maximal effect; tags give direction and shape of the fitted curve.
Note: nearly all actives have a fitted effect of over 55% in size.

Row | Structure (SMILES) | activity, negative = inhibition | Potency
1 | C/C(=N\NC(=O)c1ccc2c(c1)OCO2)c1ccc(O)cc1 | inactive: 1.65% | –
2 | O=C(N/N=C/c1sc2ccccc2c1O)c1ccccc1 | – | inconclusive: 5 µM [inhibitor, full curve]
3 | CCOc1cc(C2CC(=O)N3CN(C4CCCCC4)CSC3=C2C#N)ccc1O (stereo unspecified) | – | active: 0.792 µM
4 | O=C(O)c1cccc(-n2cccc2/C=C/[N+](=O)[O-])c1 | – | inconclusive: 11.2 µM [inhibitor, partial curve]
5 | Cc1ccc(C2C(C#N)=C(N)SC(N)=C2C#N)o1 | – | inconclusive: 11.2 µM [inhibitor, partial curve]
6 | CSCC[C@@H](C(=O)O)N1Cc2ccccc2C1=O | – | inconclusive: 15.8 µM [activator, partial curve]
7 | COc1cccc(C(=O)N2CCN(Cc3ccccn3)CC2)c1OC | – | inconclusive: 22.3 µM [inhibitor, partial curve]
8 | COc1ccc(Br)cc1CN1CCCC(C(=O)N2CCCCCC2)C1 (stereo unspecified) | – | inconclusive: 19.9 µM [inhibitor, partial curve]
9 | O=C(CSc1nc2ccccc2s1)Nc1nccs1 | inactive: 0.27% | –
10 | COC(=O)C1=C(CSc2nc3c(cc2C#N)CN(C)CC3)OC(N)=C(C#N)C1c1ccccc1F (stereo unspecified) | – | inconclusive: 6.29 µM [inhibitor, full curve, poor fit]
11 | Cc1ccc(C)c(OCCCCN2CCCCC2)c1 | – | inconclusive: 28.2 µM [inhibitor, partial curve]
12 | COc1ccc(C2NC(C(=O)O)Cc3c2[nH]c2ccccc32)cc1CN1CCN(c2ccc(F)cc2)CC1 (stereo unspecified) | – | inconclusive: 3.97 µM [inhibitor, partial curve]
13 | COc1cc(/C=C/CN2CCN(Cc3ccc(C)o3)C(CCO)C2)ccc1O (stereo unspecified) | inactive: -6.35% | –
14 | CN(C)CCOc1ccc2ccccc2c1 | – | inconclusive: 15.8 µM [inhibitor, partial curve]
15 | O=C(O)Cn1c2c(c3ccccc31)CSc1ccc(Cl)cc1-2 | – | active: 7.08 µM
16 | CC(Oc1ccc(Cl)cc1Cl)C(=O)Nc1ccc(O)cc1 (stereo unspecified) | – | inconclusive: 17.7 µM [inhibitor, single point]
17 | COc1ccc(-c2ccnc3c(C(=O)O)cnn23)cc1 | – | inconclusive: 19.9 µM [inhibitor, partial curve]
18 | COc1cc(CNc2ccc3[nH]c(=O)[nH]c3c2)ccc1OCc1ccccc1C | inactive: -1.2% | –
19 | CN1CC=C2C(C#N)=C(N)C(C#N)(C#N)C(Cc3ccccc3)C2C1 (stereo unspecified) | – | inconclusive: 17.8 µM [inhibitor, partial curve]
20 | CN(Cc1ccccc1)C(=O)C1CCCN(c2ncnc3c2nc2n3CCCCC2)C1 (stereo unspecified) | inconclusive: 28.3% [activator] | –
21 | Nc1c(C(=O)NCC2CCCO2)c2nc3ccccc3nc2n1Cc1ccco1 (stereo unspecified) | – | inconclusive: 22.3 µM [inhibitor, partial curve]
22 | N#Cc1ncc(-c2ccc3c(c2)OCCOCCOCCOCCOCCO3)nc1C#N | inactive: 1.93% | –
23 | O=C(CCN1C(=O)/C(=C/c2ccco2)SC1=S)Nc1ccc(C(=O)O)c(O)c1 | – | inconclusive: 28.2 µM [inhibitor, single point]
24 | FC(F)(F)c1ccccc1CN1CCC(Cc2ccccc2)CC1 | – | inconclusive: 39.8 µM [inhibitor, single point]
25 | COc1ccccc1Cn1[nH]nnc1=S | – | inconclusive: 17.7 µM [inhibitor, partial curve]
26 | O=C(Nc1nnc(S(=O)(=O)N2CCCC2)s1)c1ccccc1Cl | – | inconclusive: 28.2 µM [inhibitor, partial curve]

Row | Structure (SMILES) | activity, negative = inhibition | Potency
27 | O=C(O)CSc1ccnc2cc(Cl)ccc12 | – | inconclusive: 44.6 µM [inhibitor, single point]
28 | Cc1cccc(-n2nc3c(c2NC(=O)C2CC2)CS(=O)(=O)C3)c1C | inactive: 2.23% | –
29 | CN1CCN(CCCNCc2cn(CCC#N)c3ccccc23)CC1 | – | inconclusive: 15.8 µM [inhibitor, partial curve]
30 | CCN1CCN(CC(=O)Nc2ccc(C(C)=O)cc2)CC1 | – | inconclusive: 15.8 µM [inhibitor, partial curve]
31 | COc1ccccc1CN1CCN(Cc2ccco2)CC1 | – | active: 15.8 µM
32 | Cc1cc(=S)c2cccc(C)c2[nH]1 | – | inconclusive: 28.1 µM [inhibitor, single point]
33 | O=C(CSc1nc2ncccc2[nH]1)NC1CCCCC1 | – | inconclusive: 25.1 µM [inhibitor, partial curve]
34 | CCOCCCn1c(NN)nc2ccccc2c1=O | – | inconclusive: 22.3 µM [inhibitor, single point]
35 | COc1ccc(OC)c(CNc2ncc(-c3ccc(F)cc3)n2C)c1 | – | inconclusive: 14.1 µM [inhibitor, partial curve]
36 | CC1CCN(C(=O)c2[nH]cnc2C(=O)N[C@@H](C)C(=O)OCc2ccccc2)CC1 | inactive: 0.782% | –
37 | CCN(CC)C(=O)CSc1nc2ncc(Cl)cc2[nH]1 | – | inconclusive: 14.1 µM [inhibitor, partial curve]
38 | C=CCNC(=S)N/N=C(\C)c1cccnc1 | – | active: 15.8 µM
39 | O=C1c2ccccc2C(=O)C12OC2c1ccc(Cl)cc1 (stereo unspecified) | – | inconclusive: 22.3 µM [inhibitor, partial curve]
40 | N#CCCN(Cc1ccccc1)C(=S)NC(=O)c1ccccc1 | – | active: 15.8 µM
41 | COc1ccc(Cc2nc(C(=O)Nc3ccccc3)cs2)cc1 | inactive: 0.804% | –
42 | COC(=O)/C=C1/N/C(=N\c2nc(C)cc(C)n2)N(c2ccc(Cl)cc2)C1=O | – | inconclusive: 5.61 µM [inhibitor, full curve]
43 | Cc1ccc(S(=O)(=O)N2CCN(C3CC4CCC3C4)CC2)cc1 (stereo unspecified) | – | active: 14.1 µM
44 | COc1cccc(C(C(=O)NC2CCCC2)N(C(=O)c2ccco2)c2ccc(-n3cnnn3)c(C)c2)c1OC (stereo unspecified) | inactive: 2.2% | –
45 | CCOc1ccc2cc(C#N)c(=O)oc2c1 | – | inactive
46 | NC(=S)NNc1ccc(Cl)c(Cl)c1 | – | active: 12.6 µM
47 | OCc1c[nH]c(=S)n1CCOc1cccc(C(F)(F)F)c1 | inactive: -7.96% | –
48 | CC(C)S(=O)(=O)c1csc(NC(=O)Nc2ccc(Cl)cc2)c1Cl | – | inconclusive: 25.1 µM [inhibitor, single point]
49 | COc1ccc(C2CC(C(F)(F)F)n3nc(C(N)=O)c(Cl)c3N2)cc1OC (stereo unspecified) | inactive: 3% | –
50 | Fc1ccc(N=c2ssnc2Cl)c(F)c1 | – | inconclusive: 22.3 µM [inhibitor, single point]
51 | O=CC1=C(c2ccccc2)Oc2ccccc2O1 | inactive: 13.8% | –
52 | O=C(Nc1ccnn1C1CCN(Cc2ccccc2OC(F)F)CC1)c1cccnc1 | inconclusive: 25.9% [activator] | –

Row | Structure (SMILES) | activity, negative = inhibition | Potency
53 | Cc1ccc(Cn2cccc(NS(C)(=O)=O)c2=O)cc1 | – | inconclusive: 17.8 µM [inhibitor, partial curve]
54 | CCC(C)NCCOc1cc(C)cc(C)c1C (stereo unspecified) | – | active: 15.8 µM
55 | CC(C)(C)c1ccc(-n2ncc3c2CCCC3NC(=O)CN2CCCCC2=O)cc1 (stereo unspecified) | inactive: -4.96% | –
56 | CCOC(=O)c1c(C)oc2c1c(C(c1ccccc1)N1CCOCC1)c(O)c1ccccc12 (stereo unspecified) | – | inconclusive: 15.8 µM [inhibitor, partial curve]
57 | CC1CCC(N2CCN(C(=O)c3ccccc3F)CC2)CC1 (stereo unspecified) | – | inconclusive: 25.1 µM [inhibitor, partial curve]
58 | CC(=O)N1CCN(CC(=O)Nc2c(Cl)cccc2Cl)CC1 | – | inconclusive: 19.9 µM [inhibitor, partial curve]
59 | C#CCN(Cc1ccco1)C(=O)c1cc(COc2ccc(F)cc2Cl)on1 | – | inconclusive: 12.6 µM [inhibitor, partial curve]
60 | CN(CCOc1ccccc1Cl)Cc1ccccc1 | – | inconclusive: 11.2 µM [inhibitor, partial curve]
61 | CCC1(CC)Cc2ccccc2C2=C(C(=O)N3CCCCC3)C(=O)C(=O)N21 | – | inconclusive: 3.54 µM [inhibitor, full curve]
62 | COc1ccc(C(c2c(O)nc(SC)n(C)c2=O)c2c(O)nc(SC)n(C)c2=O)cc1O | inactive: -10.6% | –
63 | CC(=O)c1ccc(S(=O)(=O)Nc2cccc(-n3cnnn3)c2)cc1 | inactive: -2.3% | –
64 | Cc1c(C#N)c(O)[nH]c(=O)c1N=Nc1ccc(Br)cc1C(=O)O | – | inconclusive: 20 µM [inhibitor, partial curve]
65 | O=C(Nc1ccc(N2CCOCC2)c(Cl)c1)c1ccc(Br)o1 | – | inconclusive: 12.6 µM [inhibitor, partial curve]
66 | CCOc1cc(C(=O)NC(=S)Nc2cccnc2)cc(OCC)c1OCC | – | active: 11.2 µM
67 | O=C(O)c1cc(-c2ccco2)nc2ccccc12 | – | inconclusive: 15.8 µM [inhibitor, single point]
68 | O=C(CNCc1ccccn1)Nc1cc(C(F)(F)F)ccc1N1CCOCC1 | – | active: 15.8 µM
69 | O=c1cc2oc3cc(O)c(O)cc3c(-c3ccccc3O)c-2cc1O | – | active: 15.8 µM
70 | O=C(O)c1cccc(NS(=O)(=O)c2ccc(C3CCCCC3)cc2)c1 | – | inconclusive: 17.7 µM [activator, single point]
71 | Cc1c(C(=O)O)oc2ccc(S(=O)(=O)N3CCC(C)CC3)cc12 | – | inconclusive: 15.8 µM [activator, single point]
72 | CCCS(=O)(=O)N1CCN(C2Cc3ccccc3C2)CC1 | – | inconclusive: 5 µM [inhibitor, full curve]
73 | CN(C)S(=O)(=O)c1ccc(C(=O)Nc2ccc(CN3CCCC3)cc2)cc1 | – | inconclusive: 31.5 µM [inhibitor, single point]
74 | COc1ccc2sc(N(CCN(C)C)C(=O)/C=C/c3cccs3)nc2c1 | inactive: -8.4% | –
75 | Clc1cccc(Cl)c1CNCCCSc1ncccn1 | – | inconclusive: 28.2 µM [inhibitor, partial curve]
76 | Cc1ccc2nc3c(cc(S(=O)(=O)c4ccccc4)c(=N)n3Cc3ccco3)c(=O)n2c1 | inactive: -2.91% | –
